# Laboratory results reported in PubChem BioAssay AID493208 (National Center for Advancing Translational Sciences (NCATS), 2011).
# The campaign covered roughly 44,000 compounds. About 340 (0.77%) were called active. Roughly 5% stayed inconclusive and do not appear here. The call rests on the fitted dose curve; in most records, active means well fitted inhibition curve with a large enough effect; inconclusive means small, poorly fitted or top-dose-only effect; inactive means flat fitted curve, though single readings scatter. Some of the results follow.
# Experiment: Acumen qHTS Assay for Inhibitors of the mTORC1 Signaling Pathway in MEF (Tsc2-/-, p53-/-) Cells: Sytravon;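 further: plate controls were DMSO for no effect and rapamycin for full effect; nearly all actives have a fitted effect of over 50% in size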
# Settings: phospho-rpS6 immunofluorescence/PI, 24 h; series mostly up to 38.3 µM; activity change, negative = inhibition: at the top concentration
# Outline: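 Read-out: phospho-S6 Alexa-488 intensity over PI intensity per well, scored as % active cells using thresholds from rapamycin (7.5 nM) and DMSO controls. Tsc2-/-, p53-/- MEFs exposed to compound for 24 h; PI cell count recorded as viability.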
row,Compound,"activity change, negative = inhibition"
1,O=C(Cn1cc(S(=O)(=O)Cc2ccccc2F)c2ccccc21)NCc1ccccc1Cl,inactive: -13.9%
2,Cc1nn2c(=O)cc(COC(=O)c3ccc(NC(=O)c4cccs4)cc3)nc2s1,inactive: 9.7%
3,CCN(c1cc(C)cc(C)c1)S(=O)(=O)c1nnc(NC(=O)c2ccco2)s1,inactive: 3.29%
4,COc1ccc(NC(=O)CCN2CCN(CCO)CC2)cc1,inactive: -9.45%
5,COc1ccc2[nH]cc(CCNC(=O)c3cnn(-c4ccccc4Cl)c3C3CCN(C(=O)OC(C)(C)C)CC3)c2c1,inactive: -4.39%
6,CCOc1ccc(C(=O)Nc2ccc(-c3nc4ccccc4s3)c(C)c2)cc1OCC,inactive: 1.63%
7,Cc1nc2c(C(=O)NCCc3ccccc3)c[nH]n2c(=O)c1Cc1ccc(F)cc1Cl,inactive: -14.5%
8,Cc1ccc(NC(=O)Cn2nnc(-c3nc(-c4ccc(Cl)cc4)no3)c2N)cc1C,inactive: -4.47%
9,Cc1cccc(N2CCN(C(=O)c3ccc(NC(=O)c4nsc5ccccc45)cc3)CC2)c1C,inactive: 8.24%
10,CCc1nc2c(cnn2-c2ccc(Cl)cc2)c(=O)n1-c1ccc(OC)c(Cl)c1,inactive: 1.05%
11,Cc1ccc(OCC(=O)Nc2cc(-c3cccc(C)c3)nn2-c2ccccc2)cc1,inactive: 7.22%
12,CCOc1ccccc1C(=O)Nc1cc2c(cc1N1CCOCC1)n(C)c(=O)n2C,inactive: -28.6%
13,Cc1ccc(CCNC(=O)c2ccc3c(c2)c(C)c(C)n3Cc2ccccc2)cc1,inactive: -16%
14,COc1ccc(-n2c(=O)c3sc4ccccc4c3n(CC(=O)NCc3ccccc3)c2=O)cc1,inactive: 9.18%
15,Cc1ccccc1CNC(=O)c1ccc(CS(=O)Cc2ccc(Cl)cc2)o1 (configuration not stated),inactive: 2.19%
16,Cc1ccc2nc(N(Cc3cccnc3)C(=O)c3cccs3)sc2c1,inactive: -4.05%
17,CCCn1c(CCC(=O)Nc2cccc(CC)c2)nc2cccnc21,inactive: -1.65%
18,CCOc1ccc(N2CC(c3nc4ccccc4n3Cc3cccc(C)c3)CC2=O)cc1 (configuration not stated),inactive: 4.2%
19,O=[N+]([O-])c1cc(-c2nc(-c3ccccc3)no2)ccc1NCCc1ccccc1,inactive: -5.72%
20,CCn1c(CC2C(=O)N(C)c3ccccc32)nc2ccccc2c1=O (configuration not stated),inactive: -12.5%
21,COc1ccc(Cl)cc1NC(=O)CSc1nc(-c2ccccc2)c2ccccc2n1,inactive: 0.404%
22,O=C(Nc1cccc(F)c1)[C@@H](c1ccccc1)N1Cc2ccccc2C1=O,inactive: -0.486%
23,CCc1ccc(NC(=O)CCCn2nc(C)c3c(C)n(-c4ccccc4)nc3c2=O)cc1,inactive: -2.75%
24,CC(C)CC(C(=O)NCCc1ccccc1)N1Cc2ccccc2C1=O (configuration not stated),inactive: -0.51%
25,Cc1nn(C(C)(C)C)c(OC(=O)c2cccc(F)c2)c1Sc1ccccc1,inactive: 0.0251%

row,Compound,"activity change, negative = inhibition"
1,Cc1ccc(NC(=O)C(=O)NCCCN2CCOCC2)cc1C,inactive: -1.44%
2,Cc1cccc(NC(=O)C2(C)Cc3ccccc3C(=O)O2)c1 (configuration not stated),inactive: -3.7%
3,CC(=O)Nc1ccc2nc(SCCOc3ccccc3)sc2c1,inactive: -0.783%
4,CCc1ccc(CN(Cc2ccco2)C(=O)COc2ccc(Cl)cc2C)cc1,inactive: -14.4%
5,Cc1c(CNC2CCCCCC2)c(C(=O)O)c(C)n1Cc1ccc(F)cc1,inactive: 1.02%
6,COC(=O)c1ccc2c(=O)n(CCCCCC(=O)NC(C)C)c(=O)[nH]c2c1,inactive: -0.264%
7,O=C(NCc1ccccc1)N1CCc2c(sc3c2CCCC3)C1c1ccccc1 (configuration not stated),inactive: 1.49%
8,Cc1cc(C)cc(NC(=O)CCS(=O)(=O)c2ccc3c(c2)oc(=O)n3C)c1,inactive: 7.35%
9,Cc1ccc(Cl)cc1NC(=O)N1CCc2cc(S(=O)(=O)N3CCC(C)CC3)ccc21,inactive: -3.86%
10,O=C(Nc1nnc2n1CCS2)c1ccccc1,inactive: 1.44%
11,Cc1cccc(-n2ncc3c(N4CCN(CCO)CC4)ncnc32)c1,inactive: 7.38%
12,CCOc1ccc(C(=O)Nc2ccc3nc(SCC(=O)N(C)c4ccccc4)sc3c2)cc1,inactive: -10.9%
13,CCOC(=O)c1cc(-c2ccc(OC)cc2)n(CCC(=O)Nc2ccc(OC)cc2OC)c1C,inactive: -12.1%
14,CCOc1ccc(/C=C/c2nc3ccccc3n2S(=O)(=O)c2cccc(Cl)c2)cc1,inactive: -0.999%
15,COc1ccccc1CNC(=O)c1ccc(Nc2nc3ccccc3n3nnnc23)cc1,inactive: -24%
16,COc1cccc(-c2nc(SCC(=O)NC3CCCC3)c(-c3ccc(F)cc3)[nH]2)c1,inactive: 2.77%
17,CC(C)c1ccc(/C=C(\C#N)c2nc(-c3cc4ccccc4oc3=O)cs2)cc1,inactive: 6.17%
18,CCOC(=O)CCn1cnc2onc(-c3ccccc3Cl)c2c1=O,inactive: -12.8%
19,CCOc1ccccc1NC(=O)C1=C(C)Nc2ncnn2C1c1ccccn1 (configuration not stated),inactive: -0.191%
20,COc1ccc(C2=C(C)C(=O)N(Cc3ccc(C(=O)Nc4ccc(C)c(C)c4)cc3)S2(=O)=O)cc1,inactive: -5.18%
21,COc1cc(Cl)c(C)cc1NS(=O)(=O)c1c(C)nc2sccn2c1=O,inactive: -0.797%
22,COC(=O)c1ccc(Nc2ncnc3c2cnn3-c2ccccc2)cc1,inactive: 9.32%
23,COc1cc(NC(=O)CCc2c(C)nc3c4c(C)cc(C)nc4nn3c2C)cc(OC)c1,inactive: -1.58%
24,Cc1cc(C)cc(NC(=O)CCCn2nc(C)c3c(C)n(-c4ccccc4)nc3c2=O)c1,inactive: -2.68%
25,COc1ccc(NC(=O)CN(c2ccccc2OC)S(C)(=O)=O)c(OC)c1,inactive: -7.13%

row,Compound,"activity change, negative = inhibition"
1,CCOC(=O)C1(C)C=C(Nc2cccc(C)c2)C(=O)N1c1ccccc1 (configuration not stated),inactive: -11.1%
2,COc1cc(-c2nnc(SCC(=O)Oc3ccc(C)cc3C)o2)cc(OC)c1OC,inactive: -2.63%
3,Cc1ccc(CNC(=O)c2nc(S(=O)(=O)Cc3ccc(C)cc3)ncc2Cl)cc1,inactive: -10.8%
4,CCOCN(C(=O)Cn1c(CC(C)C)nc2ccccc21)c1c(C)cccc1CC,inactive: 2.08%
5,CC(C)c1ccc(NC(=O)C(NS(=O)(=O)c2ccc3c(c2)CCC(=O)N3)c2ccccc2)cc1 (configuration not stated),inactive: -13.5%
6,Cn1c(=O)cc(OCC(=O)N2CCN(c3ccc(F)cc3)CC2)c2ccccc21,inactive: -4.9%
7,COc1cc(OC)cc(-c2cc3nc(C)c(CCC(=O)Nc4ccc(F)c(Cl)c4)c(C)n3n2)c1,inactive: -0.486%
8,Cc1cc(C)cc(NC(=O)c2ncn(-c3ccccc3)n2)c1,inactive: -1.24%
9,Cc1c(Cl)cccc1NC(=O)C(C)N(c1ccccc1)S(C)(=O)=O (configuration not stated),inactive: -12.6%
10,CCc1ccc(NC(=O)N(Cc2cn(CC)c3ccccc23)C2CCCCC2)cc1,inactive: -6.86%
11,Cc1ccc(-c2cn3cccnc3n2)cc1NC(=O)Cc1ccccc1,inactive: -7.33%
12,O=S(=O)(c1ccccc1)c1nc(-c2ccccc2)oc1N1CCN(c2cccc(Cl)c2)CC1,inactive: -5.14%
13,CCc1ccc(NC(=O)COCc2cc(-c3ccc(F)cc3)on2)cc1,inactive: 0.251%
14,O=C(CSCc1cnn(-c2ccccc2)c1-n1cccc1)NCc1ccccc1Br,inactive: -4.15%
15,COc1ccc(Cc2nc3ccc(C(=O)NCCc4ccccc4)cc3o2)cc1,inactive: -3.04%
16,CCc1ccccc1-n1c2c(cc(-c3nc(-c4ccc(Cl)cc4)cs3)c1=O)C(=O)CC(C)(C)C2,inactive: 1.87%
17,CC(=O)N1c2ccc(S(=O)(=O)NCC3CCC(C(=O)Nc4ccc(F)cc4)CC3)cc2CC1C (configuration not stated),inactive: -7.99%
18,CCOC(=O)c1c(C)[nH]c(C)c1S(=O)(=O)N1CCN(c2ccc(Cl)cc2)CC1,inactive: 3.35%
19,COc1cccc(NC(=O)C2CCN(c3cc(C)nc4c(-c5ccc(Cl)cc5)c(C)nn34)CC2)c1,inactive: 0.289%
20,O=C(COc1ccc(F)cc1)NC1CC(=O)N(c2ccc3c(c2)OCCO3)C1 (configuration not stated),inactive: -5.59%
21,COc1ccc(CNC(=O)c2ccc3c(c2)CCN3S(=O)(=O)c2ccc(Cl)cc2)cc1,inactive: -13.7%
22,CCOc1ccc(OCC)c(NS(=O)(=O)c2ccc3[nH]c(=O)ccc3c2)c1,inactive: -6.94%
23,COc1cc2nc(SCC(=O)Nc3cccc(C)c3)n3nc(CCn4c(C)nc5ccccc54)nc3c2cc1OC,inactive: -21%
24,CC(NC(=O)C1=Cc2ccccc2OC1)c1ccccc1 (configuration not stated),inactive: -7.14%
25,CC(=O)Nc1ccc(NC(=O)Cn2c(=O)ccc3cc(S(=O)(=O)N4CCC(C)CC4)ccc32)cc1,inactive: -1.94%

row,Compound,"activity change, negative = inhibition"
1,CCC(C)NC(=O)c1sc2nc(C)c(C(=O)Nc3ccc(C)cc3C)c(-c3ccc(Br)cc3)c2c1N (configuration not stated),inactive: 0%
2,COc1cc(C2NC(=O)N(C)C3=C2C(=O)N(c2ccccc2)C3)ccc1O (configuration not stated),inactive: -0.651%
3,Cc1ccc2[nH]c(=O)c3cc(C(=O)N4CCN(c5ccccc5F)CC4)sc3c2c1,inactive: -1.39%
4,COc1ccc(-c2cnc(NCc3ccc(C)cc3)n2C)cc1,inactive: -19.9%
5,O=C(CSc1nc(-c2ccccc2)cc(=O)[nH]1)Nc1ccccc1F,inactive: -7.15%
6,COc1ccccc1CNC(=O)c1nn(-c2ccc(C)cc2)c(=O)c2c1c1ccccc1n2C,inactive: 7.96%
7,COc1ccc(CCNC(=O)CSc2nc3ccccc3nc2Cc2ccc(C)cc2)cc1OC,inactive: 4.34%
8,Cc1cccc(CSc2ncc(Cl)c(C(=O)Nc3sc4c(c3C#N)CCCC4)n2)c1,inactive: 0.881%
9,CCN(CC)c1nc2c(S(=O)(=O)c3ccc(C)cc3)nnn2c2ccsc12,inactive: -0.348%
10,COc1ccccc1NC(=O)CSc1oc(-c2cccs2)nc1S(=O)(=O)c1ccc(C)cc1,inactive: -12.6%
11,O=C(NCc1ccccc1)c1cccc(NC(=O)N2CCSc3ncccc32)c1,inactive: -0.345%
12,CCn1ccc2cc(S(=O)(=O)N3CCC(C(=O)NCc4ccc(OC(C)C)cc4)CC3)ccc21,inactive: -11.1%
13,O=C(Nc1nnc(S(=O)(=O)N2CCCC2)s1)c1ccccc1Cl,inactive: 0%
14,Cc1ccccc1NC(=O)c1ccccc1NC(=O)c1ccccc1F,inactive: 0.104%
15,O=C(CN1C(=O)COc2ccc(S(=O)(=O)N3CCCCC3)cc21)NCCc1ccc(Cl)cc1,inactive: -8.67%
16,CCCSc1nnc2c(n1)OC(CC)N(C(C)=O)c1ccccc1-2 (configuration not stated),inactive: -0.722%
17,CCOc1ccccc1CNC(=O)Cn1nc(C)c2nn(-c3ccc(Cl)cc3)c(C)c2c1=O,inactive: 4.07%
18,COC(=O)COc1ccc(Oc2nc(NC(C)(C)C)nc(N3CCOCC3)n2)nn1,inactive: 1.22%
19,COc1ccc(N2CCN(S(=O)(=O)c3c(C)nc4sc(C)cn4c3=O)CC2)cc1,inactive: 7.38%
20,COc1ccc(Cc2nc3c4cnn(-c5ccccc5Br)c4ncn3n2)cc1,inactive: 6.22%
21,CC1=C(c2ccc(C)c(C)c2)S(=O)(=O)N(Cc2ccc(C(=O)NCc3ccc(C)cc3)cc2)C1=O,inactive: -4.6%
22,Cc1cccc(OCC(=O)NCc2ccc3c(c2)CCN3C(=O)c2ccccc2)c1,inactive: -5.75%
